# Source: the supplement of paper PMC10723795
# Counter-ions that a name gives are not always drawn. Some of the results follow.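 How the source made its calls: active = more than 2 SD below the DMSO mean: under 0.85 at 10 µM or 0.885 at 1 µM; inactive = the rest.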 Most values come without repeats; read them as rough.
# System: RPE1
# Experiment: nucleolar normality score relative to DMSO (fraction of DMSO control); RPE1 is a non-cancer human cell line; higher = more normal nucleoli (less nucleolar stress)
# Conditions: 24 h
# 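Further: fixed cells immunolabelled for nucleolin and UBF, 40 image fields per well in 384-well plates, per-cell score = nucleolin nucleolar/nucleoplasm intensity ratio divided by the matching UBF ratio.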
SMILES,nucleolar normality score (1 µM),nucleolar normality score (10 µM)
Cc1ccc(C(=O)Cn2c3c(sc2=N)CCCC3)cc1 [Pifithrin-α (PFTα) HBr],inactive: 0.995,active: 0.692
O=C1C2=C(CCN(Cc3ccccc3)C2)N2CCN=C2N1Cc1ccc(C(F)(F)F)cc1,inactive: 0.996,active: 0.78
Cc1ccc(C(=O)N(CCCN)[C@@H](c2oc3cc(Cl)ccc3c(=O)c2Cc2ccccc2)C(C)C)cc1,active: 0.805,inactive: 0.927
Cn1cnc(=N)c2[nH]cnc21 [3-Methyladenine (3-MA)],inactive: 1.03,inactive: 0.921
COc1cc2ccc(=O)oc2cc1OC [Scoparone],inactive: 0.952,active: 0.849
O=C(Nc1cccnc1)N1CCC(Cc2cccc(Oc3ccc(C(F)(F)F)cn3)c2)CC1,inactive: 1,inactive: 1.07
Cc1cc(C)nc(NS(=O)(=O)c2ccc(NC(=S)NC(=O)COc3ccc(Br)cc3Cl)cc2)n1,inactive: 0.943,inactive: 1.03
Cc1cccc(-c2nn3c(c2-c2ccnc4ccc(C(N)=O)cc24)CCC3)n1,inactive: 1.01,inactive: 1.07
N#Cc1c(Oc2ccc(F)c(NC(=O)Cc3cccc(C(F)(F)F)c3)c2)ccc2nc(NC(=O)C3CC3)sc12,inactive: 0.994,inactive: 0.985
CO[C@H]1C[C@@H]2CC[C@@H](C)[C@@](O)(O2)C(=O)C(=O)N2CCCC[C@H]2C(=O)O[C@H]([C@H](C)C[C@@H]2CC[C@@H](OC(=O)C(C)(CO)CO)[C@H](OC)C2)CC(=O)[C@H](C)/C=C(\C)[C@@H](O)[C@@H](OC)C(=O)[C@H](C)C[C@H](C)/C=C/C=C/C=C/1C,active: 0.748,active: 0.819
Cc1noc(-c2ccc(CSCCC(=O)O)cc2)c1NC(=O)OC(C)c1ccccc1Cl (stereo not given),inactive: 0.967,inactive: 0.986
Cc1ccc(C(=O)Nc2cccc(C(F)(F)F)c2)cc1Nc1nc(-c2cccnc2)nc2c1cnn2C,inactive: 1.07,inactive: 1.09
COc1ccc(-c2cc(=O)c3c(OC)c(OC)c(OC)c(OC)c3o2)cc1OC [Nobiletin],inactive: 0.946,inactive: 0.866
Cc1ccc(S(=O)(=O)OCC(=O)Nc2ccc(C(=O)O)c(O)c2)cc1,inactive: 0.983,inactive: 1.01
C[C@H]1C[C@H]2[C@@H]3CCC4=CC(=O)C=C[C@]4(C)[C@H]3C(=O)C[C@]2(C)[C@@]1(O)C(=O)CO [Meprednisone],inactive: 0.994,inactive: 1.11
CC1(C)C=C(CN2C/C(=C\c3ccc(F)cc3)C(=O)/C(=C/c3ccc(F)cc3)C2)C(C)(C)N1O,inactive: 1,active: 0.766
CN1CCN(c2ccc3nc(-c4c(N)c5c(F)cccc5[nH]c4=O)[nH]c3c2)CC1 [Dovitinib (TKI258) Lactate],inactive: 0.981,inactive: 1.04
C=CCNC1=C2C[C@@H](C)C[C@H](OC)[C@H](O)[C@@H](C)/C=C(\C)[C@H](OC(N)=O)[C@@H](OC)/C=C\C=C(/C)C(=O)NC(=CC1=O)C2=O [Tanespimycin (17-AAG)],active: 0.411,active: 0.357
Cc1ccc(NC(=S)NNc2c([N+](=O)[O-])cc(C(F)(F)F)cc2[N+](=O)[O-])cc1Cl,inactive: 1.04,inactive: 1.01
COc1c(O)cc(O)c2c(=O)cc(-c3ccccc3)oc12 [Wogonin],inactive: 1.02,inactive: 0.874
O=C(O)/C=C/c1ccccc1 [Cinnamic acid],inactive: 1.06,inactive: 0.897
CC1=NN(c2ccc(C(=O)O)cc2)C(=O)C1=Cc1ccc(-c2cc(C)c(C)cc2[N+](=O)[O-])o1,active: 0.885,inactive: 1
COc1ccc(-c2cc3c(C)nc(N)nc3n([C@H]3CC[C@H](OCCO)CC3)c2=O)cn1,inactive: 0.928,active: 0.849
Cn1c(=O)c(F)c(Nc2ccc(I)cc2F)c2c(=O)n(C[C@@H](O)CO)cnc21,inactive: 0.968,active: 0.815
NCCNc1ccc(NCCN)c2c1C(=O)c1ccncc1C2=O [Pixantrone Maleate],active: 0.748,active: 0.257
Nc1cc(F)ccc1NC(=O)c1ccc(CNC(=O)/C=C/c2cccnc2)cc1 [Tucidinostat (Chidamide)],inactive: 0.926,inactive: 0.986
Cc1c(Cn2c(C)nc3c(C(=O)O)cc(N4CCOCC4)cc32)cccc1C(F)(F)F,inactive: 0.943,inactive: 1
NC(=O)CCCSc1nc(N)nc(-c2c(Cl)cc3c4c(cccc24)COC3)n1,active: 0.808,active: 0.425

SMILES,nucleolar normality score (1 µM),nucleolar normality score (10 µM)
CC(C)c1onc(-c2c(Cl)cccc2Cl)c1COc1ccc(/C=C/c2cccc(C(=O)O)c2)c(Cl)c1,inactive: 0.974,inactive: 0.851
CO[C@@H](C)Cn1c(=O)n(C)c2cnc3ccc(-c4cncc(C(C)(C)O)c4)cc3c21,active: 0.678,active: 0.533
Nc1nc(Nc2ccc(S(N)(=O)=O)cc2)nn1C(=O)c1c(F)cccc1F,inactive: 1.08,inactive: 1.09
Cc1[nH]c(/C=C2\C(=O)Nc3ccc(S(=O)(=O)Cc4c(Cl)cccc4Cl)cc32)c(C)c1C(=O)N1CCC[C@@H]1CN1CCCC1,inactive: 1.04,inactive: 1.08
NC(=O)[C@@H](CCC(F)(F)F)N(Cc1ccc(-c2ncon2)cc1F)S(=O)(=O)c1ccc(Cl)cc1,inactive: 1.04,inactive: 1.04
CC(C)(Oc1ccc(C2CC2(Cl)Cl)cc1)C(=O)O (stereo not given) [Ciprofibrate],inactive: 1.12,inactive: 1.17
c1ccc2c(-c3cnn4cc(-c5ccc(N6CCNCC6)cc5)cnc34)ccnc2c1,inactive: 1.09,inactive: 1.14
CC(C)C[C@H](NC(=O)c1cc2ccccc2s1)C(=O)N1CCN(C(=O)[C@H](CO)NS(=O)(=O)c2ccc(Cl)cc2Cl)CC1,inactive: 0.982,inactive: 0.982
O=C(Nc1ccc2c(O)cc(S(=O)(=O)O)cc2c1)Nc1ccc2c(O)cc(S(=O)(=O)O)cc2c1,active: 0.839,inactive: 0.958
COc1cc2c(cc1OC)CN(CCc1ccc(NC(=O)c3cccc4c(=O)c5cccc(OC)c5[nH]c34)cc1)CC2,inactive: 0.967,inactive: 0.96
CC[C@]1(O)C[C@@H]2CN(CCc3c([nH]c4ccccc34)[C@@](C(=O)OC)(c3cc4c(cc3OC)N(C)[C@H]3[C@@](O)(C(=O)OC)[C@H](OC(C)=O)[C@]5(CC)C=CCN6CC[C@]43[C@@H]65)C2)C1 [Vinblastine sulfate],inactive: 0.98,inactive: 1.1
O=C(O)c1ccc(N2C(=O)C(=Cc3ccc(-c4ccc([N+](=O)[O-])cc4)o3)C=C2c2ccccc2)cc1,inactive: 0.969,inactive: 1.04
Cc1cc(CS(=O)(=O)c2ccccc2)cc(OCc2ccc(CN3CCC[C@@H]3CO)cc2)c1,inactive: 0.947,inactive: 1.01
Cc1cc(N2CCOCC2)cc2[nH]c(-c3c(NCC(O)c4cccc(Cl)c4)cc[nH]c3=O)nc12 (stereo not given),active: 0.808,inactive: 0.964
Clc1ccc(COC(Cn2ccnc2)c2ccc(Cl)cc2Cl)cc1 (stereo not given) [Econazole],inactive: 1.01,inactive: 1.06
NC(=O)NO [Hydroxyurea],inactive: 0.974,inactive: 1.04
O=S(=O)(O)CCSSCCS(=O)(=O)O [Dimesna],inactive: 1,inactive: 1.06
C[C@@H]1CC[C@@]2(OC1)O[C@H]1C[C@H]3[C@@H]4CC=C5C[C@@H](O[C@@H]6O[C@H](CO)[C@@H](O)[C@H](O[C@@H]7O[C@H](CO)[C@@H](O)[C@H](O)[C@H]7O)[C@H]6O[C@@H]6O[C@@H](C)[C@H](O)[C@@H](O)[C@H]6O)CC[C@]5(C)[C@H]4CC[C@]3(C)[C@H]1[C@@H]2C [Gracillin],active: 0.385,active: 0.361
CO[C@H]1C(=O)[C@]2(C)[C@@H](OC)C[C@H]3OC[C@@]3(OC(C)=O)[C@H]2[C@H](OC(=O)c2ccccc2)[C@]2(O)C[C@H](OC(=O)[C@H](O)[C@@H](NC(=O)OC(C)(C)C)c3ccccc3)C(C)=C1C2(C)C [Cabazitaxel],active: 0.848,active: 0.764
CC(C)(C)c1ccc(S(=O)(=O)NCc2ccc(C(=O)Nc3cccnc3)cc2)cc1,inactive: 0.923,inactive: 1.01
Nc1nc(=O)c2c([nH]1)NCC(CNc1ccc(C(=O)N[C@@H](CCC(=O)O)C(=O)O)cc1)N2C=O (stereo not given in full) [Leucovorin Calcium Pentahydrate],inactive: 1.05,inactive: 1.13
Oc1c(Cl)cc(Cl)cc1Sc1cc(Cl)cc(Cl)c1O [Bithionol],inactive: 1.03,inactive: 1.1
Cc1cc(C)cc(NC(=O)Cc2ccc(OC(C)(C)C(=O)O)cc2)c1 [Efaproxiral Sodium],inactive: 0.984,inactive: 0.874
CCOc1ccc(Cc2cc([C@@H]3O[C@H](CO)[C@@H](O)[C@H](O)[C@H]3O)ccc2Cl)cc1 [Dapagliflozin],inactive: 0.996,inactive: 1.03
CN(C)CCN1C(=O)c2cccc3cc(N)cc(c23)C1=O [Amonafide],inactive: 0.964,inactive: 0.939
CC(C)NCCCn1c(Sc2cc3c(cc2I)OCO3)nc2c(N)ncnc21,inactive: 0.947,active: 0.673
Nc1ccn([C@@H]2O[C@H](CO)[C@@H](O)[C@H]2O)c(=O)n1 [Cytidine],inactive: 1.02,inactive: 1.03
